From paper PMC7454948 come the findings set out here.

In assay [1] the target is T1, GST-Sgo1 1–163 (S. cerevisiae) (UniProt Q08490).
T1 sequence: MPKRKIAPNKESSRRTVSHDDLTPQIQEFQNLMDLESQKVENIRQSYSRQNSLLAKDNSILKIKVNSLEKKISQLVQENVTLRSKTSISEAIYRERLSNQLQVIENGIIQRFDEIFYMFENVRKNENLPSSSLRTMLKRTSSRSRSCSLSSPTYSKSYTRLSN
Nature of the assay: pull-down; GST-Sgo1 proteins (100 ug) on glutathione magnetic beads, rotated with yeast lysate 2 h at 4°C; eluates immunoblotted with anti-FLAG (Ycg1), anti-HA (Smc2), anti-MYC (Rts1); only the target purified. (A western blot detects proteins with antibodies after separation by electrophoresis.)

The target of assay [2] is T2, GST-Sgo1 101–200 (S. cerevisiae) (UniProt Q08490).
T2 sequence: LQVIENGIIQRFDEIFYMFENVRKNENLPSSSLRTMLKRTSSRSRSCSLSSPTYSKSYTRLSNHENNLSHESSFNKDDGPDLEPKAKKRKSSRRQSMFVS
The description is as above.

The target in assay [3] is T3, GST-Sgo1wt (full length Sgo1-GST) (S. cerevisiae) (UniProt Q08490).
T3 sequence: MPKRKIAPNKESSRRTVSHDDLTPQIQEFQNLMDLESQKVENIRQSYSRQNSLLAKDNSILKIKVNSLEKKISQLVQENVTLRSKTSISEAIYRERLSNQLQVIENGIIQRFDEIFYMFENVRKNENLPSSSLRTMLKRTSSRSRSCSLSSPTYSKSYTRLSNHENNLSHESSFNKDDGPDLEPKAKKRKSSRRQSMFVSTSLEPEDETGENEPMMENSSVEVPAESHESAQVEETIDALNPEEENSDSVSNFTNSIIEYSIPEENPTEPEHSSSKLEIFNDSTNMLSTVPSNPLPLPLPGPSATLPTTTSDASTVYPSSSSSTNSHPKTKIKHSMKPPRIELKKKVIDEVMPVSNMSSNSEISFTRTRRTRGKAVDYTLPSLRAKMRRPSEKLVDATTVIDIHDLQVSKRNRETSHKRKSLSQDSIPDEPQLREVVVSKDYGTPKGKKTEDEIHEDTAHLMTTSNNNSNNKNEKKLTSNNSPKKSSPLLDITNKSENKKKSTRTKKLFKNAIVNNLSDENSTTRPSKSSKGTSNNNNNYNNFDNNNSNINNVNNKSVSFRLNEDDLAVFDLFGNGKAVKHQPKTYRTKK
Described as above.

The target in assay [4] is T4, GST-Sgo1 N51I (S. cerevisiae) (UniProt Q08490).
T4 sequence: T3 sequence with N51I
The description is as above.

Assay [5] has as its target T5, GST-Sgo1 137–163 (S. cerevisiae).
T5 sequence: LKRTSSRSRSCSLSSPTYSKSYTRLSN
Described as above.

Assay [6] concerns the target T6, Smc2-TEV-HaloTag-TwinStrep (S. cerevisiae) (UniProt P38989).
T6 sequence: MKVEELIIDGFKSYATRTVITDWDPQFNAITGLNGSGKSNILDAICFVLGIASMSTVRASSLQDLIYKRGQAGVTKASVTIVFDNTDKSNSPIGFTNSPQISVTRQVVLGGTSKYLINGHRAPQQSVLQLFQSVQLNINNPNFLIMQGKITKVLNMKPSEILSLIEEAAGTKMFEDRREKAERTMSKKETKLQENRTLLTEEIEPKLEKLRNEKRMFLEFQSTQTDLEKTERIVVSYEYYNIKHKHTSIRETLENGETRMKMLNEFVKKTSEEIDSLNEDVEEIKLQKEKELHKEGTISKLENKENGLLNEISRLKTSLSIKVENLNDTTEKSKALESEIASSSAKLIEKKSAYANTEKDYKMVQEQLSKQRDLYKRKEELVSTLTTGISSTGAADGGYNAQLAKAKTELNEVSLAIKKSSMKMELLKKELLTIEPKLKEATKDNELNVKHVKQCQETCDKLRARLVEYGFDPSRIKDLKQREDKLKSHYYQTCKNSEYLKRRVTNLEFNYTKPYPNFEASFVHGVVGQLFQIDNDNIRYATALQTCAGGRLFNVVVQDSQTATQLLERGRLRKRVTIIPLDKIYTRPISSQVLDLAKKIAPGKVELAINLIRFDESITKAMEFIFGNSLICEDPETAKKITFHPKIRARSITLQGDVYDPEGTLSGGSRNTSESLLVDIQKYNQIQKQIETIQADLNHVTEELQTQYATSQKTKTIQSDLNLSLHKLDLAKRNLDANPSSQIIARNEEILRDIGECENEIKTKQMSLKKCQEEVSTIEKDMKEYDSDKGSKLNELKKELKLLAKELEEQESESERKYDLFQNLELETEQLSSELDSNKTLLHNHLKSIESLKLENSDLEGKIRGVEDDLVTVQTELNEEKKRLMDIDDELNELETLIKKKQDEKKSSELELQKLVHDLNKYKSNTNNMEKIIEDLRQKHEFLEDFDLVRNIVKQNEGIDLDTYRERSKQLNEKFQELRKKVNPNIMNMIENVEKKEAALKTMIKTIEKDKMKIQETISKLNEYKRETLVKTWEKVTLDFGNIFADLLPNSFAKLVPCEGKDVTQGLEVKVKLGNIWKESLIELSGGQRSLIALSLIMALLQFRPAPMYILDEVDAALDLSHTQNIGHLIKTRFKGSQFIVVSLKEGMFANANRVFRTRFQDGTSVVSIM
Nature of the assay: pull-down; condensin purified from yeast lysate on StrepTactin Sepharose via TwinStrep-tagged Smc2, eluted with 2 mM biotin; Smc4-V5-His6 in the preparation detected with anti-V5.

Where a chain is given by its changes, count along the chain named. These are yes or no findings as the source states them, for the method shown. In cells and extracts the contact can be indirect. Some results given as binding are weak or reduced against the parent protein; the word gives no strength. Sequences can lack the tags named with a protein.

B1: Smc2-6HA (protein, UniProt P38989 1-1170)
chain: T6 sequence
As to B1, the binding entry in assay [1] is listed as “binds”; in assay [2], “no binding”; in assay [3], “binds”; in assay [4] it was “binds”; in assay [5], “no binding”.

B2: Smc4-V5-His6 (protein, UniProt Q12267 1-1418)
chain: MSDSPLSKRQKRKSAQEPELSLDQGDAEEDSQVENRVNLSENTPEPDLPALEASYSKSYTPRKLVLSSGENRYAFSQPTNSTTTSLHVPNLQPPKTSSRGRDHKSYSQSPPRSPGRSPTRRLELLQLSPVKNSRVELQKIYDRHQSSSKQQSRLFINELVLENFKSYAGKQVVGPFHTSFSAVVGPNGSGKSNVIDSMLFVFGFRANKMRQDRLSDLIHKSEAFPSLQSCSVAVHFQYVIDESSGTSRIDEEKPGLIITRKAFKNNSSKYYINEKESSYTEVTKLLKNEGIDLDHKRFLILQGEVENIAQMKPKAEKESDDGLLEYLEDIIGTANYKPLIEERMGQIENLNEVCLEKENRFEIVDREKNSLESGKETALEFLEKEKQLTLLRSKLFQFKLLQSNSKLASTLEKISSSNKDLEDEKMKFQESLKKVDEIKAQRKEIKDRISSCSSKEKTLVLERRELEGTRVSLEERTKNLVSKMEKAEKTLKSTKHSISEAENMLEELRGQQTEHETEIKDLTQLLEKERSILDDIKLSLKDKTKNISAEIIRHEKELEPWDLQLQEKESQIQLAESELSLLEETQAKLKKNVETLEEKILAKKTHKQELQDLILDLKKKLNSLKDERSQGEKNFTSAHLKLKEMQKVLNAHRQRAMEARSSLSKAQNKSKVLTALSRLQKSGRINGFHGRLGDLGVIDDSFDVAISTACPRLDDVVVDTVECAQHCIDYLRKNKLGYARFILLDRLRQFNLQPISTPENVPRLFDLVKPKNPKFSNAFYSVLRDTLVAQNLKQANNVAYGKKRFRVVTVDGKLIDISGTMSGGGNHVAKGLMKLGTNQSDKVDDYTPEEVDKIERELSERENNFRVASDTVHEMEEELKKLRDHEPDLESQISKAEMEADSLASELTLAEQQVKEAEMAYVKAVSDKAQLNVVMKNLERLRGEYNDLQSETKTKKEKIKGLQDEIMKIGGIKLQMQNSKVESVCQKLDILVAKLKKVKSASKKSGGDVVKFQKLLQNSERDVELSSDELKVIEEQLKHTKLALAENDTNMNETLNLKVELKEQSEQLKEQMEDMEESINEFKSIEIEMKNKLEKLNSLLTYIKSEITQQEKGLNELSIRDVTHTLGMLDDNKMDSVKEDVKNNQELDQEYRSCETQDESEIKDAETSCDNYHPMNIDETSDEVSRGIPRLSEDELRELDVELIESKINELSYYVEETNVDIGVLEEYARRLAEFKRRKLDLNNAVQKRDEVKEQLGILKKKRFDEFMAGFNIISMTLKEMYQMITMGGNAELELVDSLDPFSEGVTFSVMPPKKSWRNITNLSGGEKTLSSLALVFALHKYKPTPLYVMDEIDAALDFRNVSIVANYIKERTKNAQFIVISLRNNMFELAQQLVGVYKRDNRTKSTTIKNIDILNRT
Consider B2, for which, in assay [6], the binding entry is recorded as “binds”.
